Hit rate of the full screen: of about 43,000 compounds, about 200 (0.47%) were called active. Roughly 12% stayed inconclusive and do not appear here. The call rests on the fitted dose curve; in most records, active means well fitted cell-killing curve with a large enough effect; inconclusive means small, poorly fitted or top-dose-only effect, or effect the other way; inactive means flat fitted curve, though single readings scatter. Some of the results follow.
Assay: Cell viability qHTS assay in S16 Pmp22-F2sN cells; further: nearly all actives have a fitted effect of over 65% in size
Settings: S16 Pmp22-F2sN Schwann cells viability, CellTiter-Glo, 24 h; series mostly up to 57.5 µM; activity change, negative = cytotoxicity: at the top concentration
Outline: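 Used to flag compounds lowering reporter output through toxicity, this quantitative HTS measures ATP-based CellTiter-Glo luminescence in S16 Pmp22-F2sN Schwann cells after 24 h compound exposure at 37C.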
On the % scale 0 is the no-effect control and ±100 the full control effect.

| SMILES | activity change, negative = cytotoxicity |
| --- | --- |
| COc1ccc(-n2nc(C(=O)N3CCN(c4cccc(C)c4)C(C)C3)c3c4ccccc4n(C)c3c2=O)cc1Cl (configuration not stated) | inactive: 2.22% |
| COc1cccc(-n2c(=O)c3c4c(sc3n(Cc3ccccc3C#N)c2=O)CCCC4)c1 | inactive: 0.166% |
| Cc1ccccc1-c1noc(-c2ccc(NC3CCCC3)c([N+](=O)[O-])c2)n1 | inactive: 0.291% |
| CN(C(=O)CSc1nc2ccc(NC(=O)c3ccccc3)cc2s1)c1ccccc1 | inactive: -13.1% |
| O=C(CSc1oc(-c2cccs2)nc1S(=O)(=O)c1ccccc1)Nc1ccc(F)cc1 | inactive: 6.38% |
| Cc1ccc(C2=NN(CCC(=O)NCCc3cccc(C)c3)C(=O)CC2)cc1 | inactive: -22.8% |
| COc1ccc(Cn2c(NCC(C)C)nc3c2c(=O)n(C)c(=O)n3C)cc1 | inactive: 5.03% |
| Cc1ccc(-n2nc(C)c3c(C(=O)Nc4ccc(C)cc4Cl)cc(C)nc32)cc1 | inactive: 14.4% |
| COc1cc(CN(C(=O)c2ccc(C)cc2)c2ccccn2)cc(OC)c1OC | inactive: -19.6% |
| CCOC(=O)CSc1nc(-c2ccc(OC)cc2)cc(C(F)(F)F)c1C#N | inactive: -1.76% |
| CC(=O)Nc1cccc(-c2nnc(SCC(=O)c3ccc([N+](=O)[O-])cc3)o2)c1 | inactive: 21.7% |
| COc1ccc(OC)c(CNC(=O)c2cnc(N(C)C)nc2)c1 | inactive: 5.53% |
| CCOc1ccccc1/C=C/c1onc(C)c1S(=O)(=O)N1CCC(C(=O)N2CCCCC2)CC1 | inactive: -9% |
| CCc1ccccc1NS(=O)(=O)c1ccc2[nH]cc(C(=O)NC3CCCC3)c(=O)c2c1 | inactive: -9.68% |
| CCOc1ccc(CCNC(=O)CCn2c(=O)c3cccn3c3ccc(F)cc32)cc1 | inactive: -0.0781% |
| Cc1ccc(NC(=O)Cn2nc(C(F)(F)F)c3c2CCC3)cc1C | inactive: 7.6% |
| O=C(Nc1ccc(OCc2cc(=O)n3c4c(sc3n2)CCCC4)cc1)c1ccc(F)cc1 | inactive: 1.53% |
| COC(=O)Cc1c(C)c2ccc3c(c2oc1=O)CN(Cc1ccc(C)cc1)CO3 | inactive: -0.592% |
| Cc1ccccc1-c1noc(CSc2nc(-c3ccc(F)cc3)cc(=O)[nH]2)n1 | inactive: -0.596% |
| COc1ccc(-n2nnnc2SCC(=O)NCCc2ccccc2)cc1 | inactive: -3.44% |
| CCc1ccc(N2CC(c3nc4ccccc4n3Cc3ccccc3C)CC2=O)cc1 (configuration not stated) | inactive: -15.3% |
| CCOc1ccc(C(=O)NCCc2sc(-c3cccc(F)c3)nc2C)cc1OCC | inactive: -0.994% |
| Cc1cccc(CNC(=O)CCCN2C(=O)c3cccnc3Oc3ccccc32)c1 | inactive: -2.01% |
| COc1ccc(-c2noc(-c3ccc(NCc4ccco4)c([N+](=O)[O-])c3)n2)cc1OC | inactive: 19% |
| Cc1ccc(NC(=O)CCCN2C(=O)COc3ccc(C)cc32)c(Cl)c1 | inactive: -9.42% |
| CCC1Oc2ccc(C)cc2N(CC(=O)NCCc2ccccc2)C1=O (configuration not stated) | inactive: 9.73% |
| CCOC(=O)c1cnc2ccc(OC(F)(F)F)cc2c1Nc1ccccc1C(=O)O | inactive: -0.236% |
